# Test results reported in PMC4242493.
# The other results are listed elsewhere or left out. The list includes weakly bound sequences.
# Molecular target: MaxL homodimer (UniProt P61244)
# Assay: universal protein-binding microarray (PBM)
# Settings: PBS-based mixture, 10 nM His-tagged protein dimer, 2% milk, 200 ng/uL BSA, 50 ng/uL salmon testes DNA, 0.02% TX-100; detection with Alexa 488 anti-His …; high values mean tight binding; most listed sequences are background and not binding sites; double strand, one strand shown
# Sequence of UniProt P61244 (P61244 whole entry): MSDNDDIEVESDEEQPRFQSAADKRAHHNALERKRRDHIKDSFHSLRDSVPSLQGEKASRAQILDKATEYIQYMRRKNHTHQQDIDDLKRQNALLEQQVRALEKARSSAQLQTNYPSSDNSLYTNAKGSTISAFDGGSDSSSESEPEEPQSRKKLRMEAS
row,Sequence,binding signal (normalized occupancy)
1,CCCCATCC,0.0846
2,ACGATTGA,0.0852
3,GAAGTGCC,0.0689
4,AGGTTAAT,0.0754
5,AGAATCCG,0.0701
6,CGACGTAG,0.0755
7,AAGTGTCG,0.0698
8,CCGTCGTC,0.0708
9,AACTGTCA,0.0789
10,AGCTATGG,0.0735
11,TACAGCTA,0.0769
12,ATTCTGCG,0.0748
13,AACTTTTA,0.0756
14,CATAAGTA,0.0794
15,CAGAATGG,0.0752
16,ATATGGAT,0.0898
17,GCTAAGAA,0.0741
18,AACTTTGA,0.0709
19,CCGATAAG,0.0715
20,CTGTGGAA,0.072
21,CCAGGGAC,0.0698
22,ACTGTAAC,0.0739
23,AACGGCTG,0.0682
24,AAGTTTAT,0.0751
25,AAGACTCG,0.0694

row,Sequence,binding signal (normalized occupancy)
1,AGGCAGCA,0.0781
2,ACAAAAAT,0.076
3,TCCCCCAA,0.0756
4,GGACCGTA,0.0673
5,AGATAGTC,0.0791
6,AGTAGAAT,0.0835
7,ACCCAATG,0.0792
8,CATTCTAA,0.0721
9,GGCGGACC,0.0677
10,GCCTACCA,0.0757
11,AACCTGAA,0.0749
12,AAGATGGC,0.0717
13,AAGAACGG,0.0687
14,AGAGTTAT,0.0773
15,TCGCCCGA,0.0722
16,ACCCAACA,0.0771
17,CGAAAGAA,0.0716
18,CAAGTTAC,0.0732
19,CATATGGC,0.0994
20,ATTCCGAA,0.0735
21,GATGTGGC,0.0839
22,CGACGCCG,0.071
23,CGAGTATA,0.079
24,GGCGCGCC,0.0668
25,GAGTGAAC,0.0708

row,Sequence,binding signal (normalized occupancy)
1,CGACTTGA,0.0698
2,ACAGAATA,0.0789
3,AATGATGG,0.0844
4,ATATCCAA,0.0793
5,ACTCACCC,0.0796
6,AGAGTGCG,0.0758
7,GACTTAAC,0.0746
8,ATCCGGGA,0.0686
9,AAAGTGAC,0.0689
10,TCCACAAA,0.0726
11,AGTGTTAT,0.0819
12,GAGGAGAC,0.0713
13,GGGGGAGA,0.0754
14,AGCAAGTC,0.0699
15,AAGCGTTC,0.0728
16,CGAGATCC,0.0744
17,GGGCTAAC,0.0672
18,CCGGAAAA,0.0683
19,ACGTAACC,0.0727
20,GCCTTCGA,0.0686
21,AGTAACGC,0.0764
22,AGGGGTCG,0.0779
23,GAGTATCA,0.0776
24,CGCTAGGA,0.0709
25,GAAGGTTA,0.0687

row,Sequence,binding signal (normalized occupancy)
1,CAAGCTGA,0.0702
2,ATGCTAGG,0.0765
3,AATACCAC,0.0839
4,GTCACCAA,0.0774
5,CTAAGATA,0.0748
6,CGGAAACA,0.0731
7,ATCTACAC,0.082
8,GCACGGGA,0.0842
9,ACGGTCTA,0.075
10,CGTAAAAC,0.0743
11,AATCTAGT,0.0739
12,AGGCCCTG,0.072
13,AGCTTCGA,0.0672
14,ACGACCCG,0.0732
15,AGGCACCA,0.0768
16,CCTGTGCA,0.0816
17,CAACGTCC,0.0732
18,CTACTCTA,0.0742
19,CACACATA,0.0896
20,AAAAATCG,0.0693
21,CTCGATGA,0.0797
22,CACTGAGC,0.0724
23,ATAGCGGC,0.0744
24,AAAAACCA,0.0806
25,CAGCCACA,0.0725

row,Sequence,binding signal (normalized occupancy)
1,ATAATCTC,0.0801
2,CTCGCTTA,0.073
3,AATAGTGA,0.0748
4,ACTCAAGC,0.0729
5,ATGTGCCA,0.0923
6,ATGTTCCC,0.0863
7,ACACGGCA,0.0781
8,ATCGGAAC,0.0699
9,AACCCTGT,0.0728
10,GGCGTGTA,0.0895
11,CGCTGAAG,0.0697
12,AAAGCCGT,0.068
13,CCTTACGC,0.0734
14,CGAAACCA,0.0791
15,CGGGCGCA,0.0655
16,GTTAGAGA,0.0753
17,AAAGGCCA,0.0803
18,CATTTGTA,0.0834
19,ACATGGGC,0.0848
20,ACAACATG,0.0952
21,AAGAAACG,0.0781
22,TACAGTGA,0.0778
23,GGAATTCA,0.0721
24,TCCTACCA,0.0734
25,GTTCTTGA,0.0755

row,Sequence,binding signal (normalized occupancy)
1,TCAGTACA,0.0794
2,ATCTCAAG,0.0719
3,CCCAAATC,0.0732
4,ACCAGCCT,0.0723
5,CCCGGCAG,0.0676
6,CCCTCAGG,0.0699
7,AGATCAGG,0.0763
8,GTTATACA,0.0889
9,CAAATTGA,0.0747
10,CAAGGCAG,0.0762
11,ACTACCGA,0.0753
12,AGGCTCAG,0.0713
13,ATTTTACC,0.0827
14,GCTCGTTA,0.0725
15,CGCCGTAG,0.0688
16,CCGGACCA,0.0766
17,GGGCGAAC,0.0744
18,GCATAAGC,0.0761
19,ATTTTCGC,0.071
20,GACTGAAC,0.071
21,CGCGCAGA,0.0714
22,AAAGGTAC,0.0713
23,GCTCGACC,0.0677
24,AACTATTA,0.076
25,TCAACTGA,0.0743

row,Sequence,binding signal (normalized occupancy)
1,CTGTGCTC,0.0735
2,ACAGTAGG,0.0754
3,ACATCTAA,0.0817
4,AGACCAAT,0.0706
5,AGGTTCCC,0.0714
6,CTAAGTCA,0.0739
7,CTACGCGA,0.0688
8,CATGGTCC,0.0891
9,TAAGCCCA,0.0743
10,GTTCGCGA,0.0668
11,GCCACCAA,0.072
12,ACCTCTGC,0.0759
13,AGCAAACA,0.0822
14,AAAAGCAA,0.0737
15,ACCGTTCG,0.0729
16,GAACCGAA,0.0654
17,AATGGCAT,0.0907
18,GAAACCAC,0.0834
19,CGTTACCC,0.0797
20,CTAAGGGC,0.0716
21,GAGTGATC,0.0724
22,AGCAGATA,0.0707
23,CTGCTAAA,0.0677
24,ACTAGTTA,0.0749
25,AAGTCCCA,0.0706

row,Sequence,binding signal (normalized occupancy)
1,AGTACGTA,0.0786
2,GGCTACTA,0.0714
3,AAAGCCCC,0.0704
4,AGAAACAT,0.0809
5,GAATGGCA,0.0776
6,ACAGTTAG,0.0725
7,GTAAGGAA,0.0733
8,CTGGGGGC,0.0675
9,ATCGAAGG,0.0715
10,AAGGTGCA,0.0746
11,TCTGTGAA,0.0733
12,ACATTTGA,0.0788
13,AACTACTA,0.0738
14,GTAGATCA,0.074
15,AAGTGAAG,0.076
16,TCTAATCA,0.0772
17,CTCCGACC,0.0732
18,CAGTACCG,0.0729
19,ACTATCAC,0.0761
20,CTCCCTGA,0.0717
21,AGGTGCTA,0.0779
22,ATGGCATA,0.085
23,CACGCGGC,0.151
24,CTCGGAGA,0.0662
25,CTCTATCA,0.0747

row,Sequence,binding signal (normalized occupancy)
1,TCACCCCA,0.0836
2,AAATACTA,0.0746
3,AAGAGTGC,0.0752
4,GGGGTTGA,0.0883
5,TAAACGAA,0.0728
6,ACAGCAGA,0.0725
7,GGCTGGAA,0.0729
8,ATCTGCAA,0.0757
9,AAAAACGG,0.0691
10,TGACCACA,0.0815
11,GTATAAAA,0.0856
12,ATGGGAAC,0.0777
13,CTAAGACA,0.0843
14,ATTTAACA,0.0772
15,ACGGCGCA,0.0778
16,ATCGACTA,0.0763
17,ATCGGCGC,0.0749
18,CGACCTTA,0.0767
19,CTCTACTA,0.0757
